Results: the supplement of paper PMC10369915
The list shows a part of the results. Rule as the data show it: active = 3.2 or more and inactive = the rest. The signal is at background level for most entries.
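Also: displayed peptides selected on beads carrying the immobilized SH2 domain, with library peptides lacking any tyrosine serving as negative controls.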

What follows are binders tested against SHP2 C-SH2 domain E139D (assay: enrichment score (SH2-bound / input frequency) (ratio); bacterial display of known human phosphotyrosine sites (pTyr-Var adds point mutants) read by sequencing; higher = stronger binding; tyrosines were phosphorylated by kinases first). Conditions: peptide library: Human pTyr.
GHLGSEEYDVPPRLS [CBLB_HUMAN_665] was tested, and the enrichment score was inactive: 0.47. KRNKPTVYGVSPNYD [ABL1_HUMAN_226] was tested, and the enrichment score was inactive: 0.904. In the case of TKANQELYTTHGLIK [CC105_HUMAN_372_YA], the enrichment score is reported as inactive: 0.924. In the case of AGSPLKAYTPVVVTL [CD11B_HUMAN_594_YA], the enrichment score is reported as inactive: 1.06. GSGPQNQYGNVLSLP [CD19_HUMAN_348] was tested, and the enrichment score was inactive: 0.788. TRKHYQPYAPPRDFA [CD28_HUMAN_209] was tested, and the enrichment score was inactive: 2.62. GGQYGEVYEGVWKKY [ABL1_HUMAN_257] was tested, and the enrichment score was inactive: 0.585. With KDREDDQYSHLQGNQ [CD3G_HUMAN_171] the enrichment score was inactive: 0.727. With GKGHDGLYQGLSTAT [CD3Z_HUMAN_142] the enrichment score was inactive: 0.721. DDDGEITYENVQVPA [CD72_HUMAN_39] was tested, and the enrichment score was inactive: 1.24. With GMAEAITYADLRFVK [CD72_HUMAN_7] the enrichment score was inactive: 3.11. EYEDENLYEGLNLDD [CD79A_HUMAN_188] was tested, and the enrichment score was inactive: 1.28. With EAEDENLYEGLNLDD [CD79A_HUMAN_188_YA] the enrichment score was inactive: 1.12. IPAAANRYDQERFKG [CDC73_HUMAN_293_YA] was tested, and the enrichment score was inactive: 1.05. With NDPTAPPYDSLLVFD [CDH2_HUMAN_852] the enrichment score was inactive: 0.651. DSLLVFDYEGSGSTA [CDH2_HUMAN_860] was tested, and the enrichment score was inactive: 0.543. SSGGEQDYDALNDWG [CDH2_HUMAN_884_YA] was tested, and the enrichment score was inactive: 0.716. For GGGGMEDYTKIEKIG [CDK1_HUMAN_4], the enrichment score was inactive: 0.627.

These binders were tested against SHP2 C-SH2 domain wild-type in the same assay as above. Conditions: peptide library: Human pTyr.
For GHLGSEEYDVPPRLS [CBLB_HUMAN_665], the enrichment score was inactive: 0.386. With KRNKPTVYGVSPNYD [ABL1_HUMAN_226] the enrichment score was inactive: 0.924. For TKANQELYTTHGLIK [CC105_HUMAN_372_YA], the enrichment score was inactive: 0.701. In the case of AGSPLKAYTPVVVTL [CD11B_HUMAN_594_YA], the enrichment score is reported as inactive: 1.05. In the case of GSGPQNQYGNVLSLP [CD19_HUMAN_348], the enrichment score is reported as inactive: 0.649. For TRKHYQPYAPPRDFA [CD28_HUMAN_209], the enrichment score was inactive: 3.04. For GGQYGEVYEGVWKKY [ABL1_HUMAN_257], the enrichment score was inactive: 0.658. In the case of KDREDDQYSHLQGNQ [CD3G_HUMAN_171], the enrichment score is reported as inactive: 0.591. In the case of GKGHDGLYQGLSTAT [CD3Z_HUMAN_142], the enrichment score is reported as inactive: 0.731. In the case of DDDGEITYENVQVPA [CD72_HUMAN_39], the enrichment score is reported as inactive: 1.07. For GMAEAITYADLRFVK [CD72_HUMAN_7], the enrichment score was active: 4.81. EYEDENLYEGLNLDD [CD79A_HUMAN_188] was tested, and the enrichment score was inactive: 1.18. For EAEDENLYEGLNLDD [CD79A_HUMAN_188_YA], the enrichment score was inactive: 1.25. For IPAAANRYDQERFKG [CDC73_HUMAN_293_YA], the enrichment score was inactive: 0.924. With NDPTAPPYDSLLVFD [CDH2_HUMAN_852] the enrichment score was inactive: 0.549. With DSLLVFDYEGSGSTA [CDH2_HUMAN_860] the enrichment score was inactive: 0.435. With SSGGEQDYDALNDWG [CDH2_HUMAN_884_YA] the enrichment score was inactive: 0.5. With GGGGMEDYTKIEKIG [CDK1_HUMAN_4] the enrichment score was inactive: 0.632.

These binders were tested against SHP2 N-SH2 domain L43F in the same assay as above. Conditions: peptide library: Human pTyr.
GHLGSEEYDVPPRLS [CBLB_HUMAN_665] was tested, and the enrichment score was inactive: 0.451. KRNKPTVYGVSPNYD [ABL1_HUMAN_226] was tested, and the enrichment score was inactive: 0.99. In the case of TKANQELYTTHGLIK [CC105_HUMAN_372_YA], the enrichment score is reported as inactive: 0.877. AGSPLKAYTPVVVTL [CD11B_HUMAN_594_YA] was tested, and the enrichment score was inactive: 0.929. GSGPQNQYGNVLSLP [CD19_HUMAN_348] was tested, and the enrichment score was inactive: 0.542. In the case of TRKHYQPYAPPRDFA [CD28_HUMAN_209], the enrichment score is reported as inactive: 2.57. In the case of GGQYGEVYEGVWKKY [ABL1_HUMAN_257], the enrichment score is reported as inactive: 0.75. For KDREDDQYSHLQGNQ [CD3G_HUMAN_171], the enrichment score was inactive: 0.62. In the case of GKGHDGLYQGLSTAT [CD3Z_HUMAN_142], the enrichment score is reported as inactive: 0.626. In the case of DDDGEITYENVQVPA [CD72_HUMAN_39], the enrichment score is reported as inactive: 1.09. For GMAEAITYADLRFVK [CD72_HUMAN_7], the enrichment score was active: 9.34. EYEDENLYEGLNLDD [CD79A_HUMAN_188] was tested, and the enrichment score was inactive: 1.06. For EAEDENLYEGLNLDD [CD79A_HUMAN_188_YA], the enrichment score was inactive: 1.26. For IPAAANRYDQERFKG [CDC73_HUMAN_293_YA], the enrichment score was inactive: 0.811. For NDPTAPPYDSLLVFD [CDH2_HUMAN_852], the enrichment score was inactive: 0.728. In the case of DSLLVFDYEGSGSTA [CDH2_HUMAN_860], the enrichment score is reported as inactive: 0.44. In the case of SSGGEQDYDALNDWG [CDH2_HUMAN_884_YA], the enrichment score is reported as inactive: 0.6. For GGGGMEDYTKIEKIG [CDK1_HUMAN_4], the enrichment score was inactive: 0.944.

Each binder was assayed against SHP2 N-SH2 domain T42A in the same assay as above. Conditions: peptide library: Human pTyr.
With GHLGSEEYDVPPRLS [CBLB_HUMAN_665] the enrichment score was inactive: 0.532. With KRNKPTVYGVSPNYD [ABL1_HUMAN_226] the enrichment score was inactive: 0.996. With TKANQELYTTHGLIK [CC105_HUMAN_372_YA] the enrichment score was inactive: 0.793. AGSPLKAYTPVVVTL [CD11B_HUMAN_594_YA] was tested, and the enrichment score was inactive: 1.64. With GSGPQNQYGNVLSLP [CD19_HUMAN_348] the enrichment score was inactive: 0.668. With TRKHYQPYAPPRDFA [CD28_HUMAN_209] the enrichment score was inactive: 2.48. GGQYGEVYEGVWKKY [ABL1_HUMAN_257] was tested, and the enrichment score was inactive: 0.598. In the case of KDREDDQYSHLQGNQ [CD3G_HUMAN_171], the enrichment score is reported as inactive: 0.651. With GKGHDGLYQGLSTAT [CD3Z_HUMAN_142] the enrichment score was inactive: 0.569. In the case of DDDGEITYENVQVPA [CD72_HUMAN_39], the enrichment score is reported as inactive: 1.16. With GMAEAITYADLRFVK [CD72_HUMAN_7] the enrichment score was active: 7.79. In the case of EYEDENLYEGLNLDD [CD79A_HUMAN_188], the enrichment score is reported as inactive: 1.26. EAEDENLYEGLNLDD [CD79A_HUMAN_188_YA] was tested, and the enrichment score was inactive: 1.16. For IPAAANRYDQERFKG [CDC73_HUMAN_293_YA], the enrichment score was inactive: 0.969. NDPTAPPYDSLLVFD [CDH2_HUMAN_852] was tested, and the enrichment score was inactive: 0.604. DSLLVFDYEGSGSTA [CDH2_HUMAN_860] was tested, and the enrichment score was inactive: 0.549. With SSGGEQDYDALNDWG [CDH2_HUMAN_884_YA] the enrichment score was inactive: 0.701. With GGGGMEDYTKIEKIG [CDK1_HUMAN_4] the enrichment score was inactive: 0.55.

Each binder was assayed against SHP2 N-SH2 domain T52S in the same assay as above. Conditions: peptide library: Human pTyr.
In the case of GHLGSEEYDVPPRLS [CBLB_HUMAN_665], the enrichment score is reported as inactive: 0.613. KRNKPTVYGVSPNYD [ABL1_HUMAN_226] was tested, and the enrichment score was inactive: 0.984. For TKANQELYTTHGLIK [CC105_HUMAN_372_YA], the enrichment score was inactive: 1. AGSPLKAYTPVVVTL [CD11B_HUMAN_594_YA] was tested, and the enrichment score was inactive: 0.955. With GSGPQNQYGNVLSLP [CD19_HUMAN_348] the enrichment score was inactive: 0.545. With TRKHYQPYAPPRDFA [CD28_HUMAN_209] the enrichment score was active: 3.46. GGQYGEVYEGVWKKY [ABL1_HUMAN_257] was tested, and the enrichment score was inactive: 0.581. For KDREDDQYSHLQGNQ [CD3G_HUMAN_171], the enrichment score was inactive: 0.843. For GKGHDGLYQGLSTAT [CD3Z_HUMAN_142], the enrichment score was inactive: 0.537. For DDDGEITYENVQVPA [CD72_HUMAN_39], the enrichment score was inactive: 1.12. In the case of GMAEAITYADLRFVK [CD72_HUMAN_7], the enrichment score is reported as active: 5.88. With EYEDENLYEGLNLDD [CD79A_HUMAN_188] the enrichment score was inactive: 1.49. With EAEDENLYEGLNLDD [CD79A_HUMAN_188_YA] the enrichment score was inactive: 1.07. For IPAAANRYDQERFKG [CDC73_HUMAN_293_YA], the enrichment score was inactive: 0.848. In the case of NDPTAPPYDSLLVFD [CDH2_HUMAN_852], the enrichment score is reported as inactive: 0.781. DSLLVFDYEGSGSTA [CDH2_HUMAN_860] was tested, and the enrichment score was inactive: 0.448. With SSGGEQDYDALNDWG [CDH2_HUMAN_884_YA] the enrichment score was inactive: 0.681. GGGGMEDYTKIEKIG [CDK1_HUMAN_4] was tested, and the enrichment score was inactive: 0.798.

What follows are binders tested against SHP2 N-SH2 domain wild-type in the same assay as above. Conditions: peptide library: Human pTyr.
GHLGSEEYDVPPRLS [CBLB_HUMAN_665] was tested, and the enrichment score was inactive: 0.697. KRNKPTVYGVSPNYD [ABL1_HUMAN_226] was tested, and the enrichment score was inactive: 1.03. In the case of TKANQELYTTHGLIK [CC105_HUMAN_372_YA], the enrichment score is reported as inactive: 1.14. In the case of AGSPLKAYTPVVVTL [CD11B_HUMAN_594_YA], the enrichment score is reported as inactive: 0.956. GSGPQNQYGNVLSLP [CD19_HUMAN_348] was tested, and the enrichment score was inactive: 0.553. For TRKHYQPYAPPRDFA [CD28_HUMAN_209], the enrichment score was active: 3.98. With GGQYGEVYEGVWKKY [ABL1_HUMAN_257] the enrichment score was inactive: 0.488. In the case of KDREDDQYSHLQGNQ [CD3G_HUMAN_171], the enrichment score is reported as inactive: 0.781. For GKGHDGLYQGLSTAT [CD3Z_HUMAN_142], the enrichment score was inactive: 0.693. With DDDGEITYENVQVPA [CD72_HUMAN_39] the enrichment score was inactive: 1.12. GMAEAITYADLRFVK [CD72_HUMAN_7] was tested, and the enrichment score was inactive: 3.03. EYEDENLYEGLNLDD [CD79A_HUMAN_188] was tested, and the enrichment score was inactive: 1.34. In the case of EAEDENLYEGLNLDD [CD79A_HUMAN_188_YA], the enrichment score is reported as inactive: 1.34. In the case of IPAAANRYDQERFKG [CDC73_HUMAN_293_YA], the enrichment score is reported as inactive: 0.822. For NDPTAPPYDSLLVFD [CDH2_HUMAN_852], the enrichment score was inactive: 0.658. With DSLLVFDYEGSGSTA [CDH2_HUMAN_860] the enrichment score was inactive: 0.476. SSGGEQDYDALNDWG [CDH2_HUMAN_884_YA] was tested, and the enrichment score was inactive: 0.857. In the case of GGGGMEDYTKIEKIG [CDK1_HUMAN_4], the enrichment score is reported as inactive: 0.913.
